Experimental data: the supplement of paper PMC3334620
In all, about 33,000 sequences were measured (“E-score (-0.5 to 0.5)”: median about -0.054, highest 2% from about 0.35 on). Some of the results follow.

Target: T1, Stb5 (UniProt P38699)
T1 sequence: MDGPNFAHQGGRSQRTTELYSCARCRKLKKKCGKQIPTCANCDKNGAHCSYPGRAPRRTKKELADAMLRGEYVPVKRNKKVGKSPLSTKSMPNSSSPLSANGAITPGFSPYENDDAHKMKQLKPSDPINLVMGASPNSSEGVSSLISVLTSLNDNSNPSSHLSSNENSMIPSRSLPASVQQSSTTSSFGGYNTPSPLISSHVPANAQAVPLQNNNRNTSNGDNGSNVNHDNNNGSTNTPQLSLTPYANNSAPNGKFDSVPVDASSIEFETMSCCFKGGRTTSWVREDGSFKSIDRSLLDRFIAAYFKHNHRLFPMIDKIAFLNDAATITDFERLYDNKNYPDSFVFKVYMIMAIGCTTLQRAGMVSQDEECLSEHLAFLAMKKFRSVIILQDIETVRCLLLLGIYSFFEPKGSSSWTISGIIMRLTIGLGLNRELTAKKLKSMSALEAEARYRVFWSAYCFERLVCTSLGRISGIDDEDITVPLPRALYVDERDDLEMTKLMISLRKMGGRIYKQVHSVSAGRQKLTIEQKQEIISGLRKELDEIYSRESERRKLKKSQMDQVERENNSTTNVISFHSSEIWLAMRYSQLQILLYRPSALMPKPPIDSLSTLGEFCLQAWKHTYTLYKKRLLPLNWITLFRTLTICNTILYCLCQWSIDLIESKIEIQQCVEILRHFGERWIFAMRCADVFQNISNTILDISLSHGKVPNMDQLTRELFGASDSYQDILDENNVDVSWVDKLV
Experiment: PBM E-score (8-mer binding enrichment) (E-score (-0.5 to 0.5)); higher = stronger / more preferred TF binding; most listed sequences are background and not binding sites
Conditions: protein concentration: 200 nM; construct: GST-full length
In short: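 Detection of bound protein used fluorescent anti-GST, with scans normalised by masliner. The proteins were GST-tagged yeast transcription factors applied at about 100-200 nM to universal all-10-mer Agilent arrays made double-stranded by primer extension. Each ungapped eight-base word, pooled with its reverse complement, was scored with an E-score from the Universal PBM Analysis Suite.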

Row | Sequence | PBM E-score
1 | CAAGCGAA | -0.355
2 | CAAAGTTA | -0.0549
3 | CCTTAGTC | 0.0459
4 | AGCAACTA | 0.0984
5 | GAGGCGAC | -0.252
6 | GGTAGGGA | -0.00935
7 | AAGGCCGG | 0.407
8 | TCGTTACA | -0.114
9 | GCTTAGAA | -0.107
10 | AATCCATC | -0.179
11 | CTGTAGCA | -0.128
12 | AAAACAAC | -0.173
13 | ATTGCTTC | -0.0848
14 | AAAATAAG | 0.0161
15 | CCTCCATC | -0.18
16 | CAGGTTGA | -0.147
17 | CACATAGG | -0.126
18 | GCGCCTCA | -0.0151
19 | CGAACGCA | 0.0645
20 | AACCGGCA | 0.106
21 | CCATGCAG | -0.247
22 | ATCGCGGC | 0.32
23 | CACTCAAG | -0.364
24 | AGGGCAAC | -0.225
25 | ACATTTCT | 0.00908

Row | Sequence | PBM E-score
26 | CCCTTAAA | -0.237
27 | CCCATATC | 0.0514
28 | ATTTCCAG | -0.0648
29 | GCTTCTAA | -0.191
30 | CGCAACAA | -0.0248
31 | ATCGAAGA | 0.0496
32 | CTCCTCTC | -0.308
33 | GCCCCCAC | 0.0261
34 | CGTAATAA | -0.0188
35 | TACAGCCA | -0.151
36 | TTCCACAA | -0.131
37 | CGTATCGC | 0.205
38 | CGCACTAA | 0.114
39 | ACGAGGAC | 0.0813
40 | CAAGGCAG | -0.201
41 | AGGCGTGA | -0.213
42 | TGGCGTAA | -0.159
43 | CCTCAAGG | -0.277
44 | CGATCCAC | -0.0554
45 | ATGCAGGC | -0.101
46 | AAAGAGGC | -0.0782
47 | AAGGGAAT | -0.00041
48 | ACTGACAC | 0.0105
49 | ATTCCACC | 0.135
50 | GAGCCGAA | 0.0621

Row | Sequence | PBM E-score
51 | CTCTCTCA | -0.0636
52 | CATCTCAC | -0.0371
53 | CACACACC | 0.105
54 | CTCCGGCC | 0.245
55 | AACCGATC | 0.106
56 | GTCACATA | 0.0765
57 | AGCACCAA | -0.159
58 | AAGGATTG | -0.188
59 | ACATCGTG | -0.106
60 | CCATCCGC | 0.136
61 | AAGTTTGT | 0.0493
62 | GCCTTACA | 0.0192
63 | CGGATCAC | 0.0285
64 | AGTAAGCG | 0.0373
65 | AAGTTCTC | -0.0356
66 | TATGCTAA | -0.119
67 | CCACCGTC | 0.246
68 | AGACAGCC | -0.0587
69 | CCCTTTAA | 0.0465
70 | TATACGGA | 0.134
71 | CTGAACGA | -0.151
72 | CACGCCTG | -0.158
73 | AAGTACCG | 0.441
74 | CGCATTGC | -0.0359
75 | ATGCCGTA | 0.162

Row | Sequence | PBM E-score
76 | GCGGCCAA | 0.0811
77 | ATTCCTGG | -0.183
78 | ATTACTAG | 0.165
79 | GAAGGGGA | -0.287
80 | ACATGGGA | 0.0704
81 | GGCTTGTA | -0.0193
82 | CCCGTAAA | 0.142
83 | AGGCTCCA | -0.215
84 | CATATTAG | 0.0822
85 | GACCTTCC | -0.0223
86 | GACCGGTC | 0.316
87 | GTATGTAA | -0.0466
88 | CACAATTA | -0.173
89 | ACACGGAC | 0.286
90 | GATAAGCC | 0.0935
91 | ACCCACCG | 0.177
92 | CCGCTCCA | 0.29
93 | GTAATCAC | 0.128
94 | AGCGCACA | -0.0927
95 | CGTAGTTA | 0.178
96 | ATCGGGAA | 0.306
97 | CACGCGTG | -0.116
98 | TACCCAGA | -0.292
99 | CCGATCAG | 0.277
100 | CACCGAAC | 0.366

Row | Sequence | PBM E-score
101 | ACGTTAAT | 0.00158
102 | CCCCGTTC | 0.313
103 | AACCGTAC | -0.09
104 | GGCGCGAA | 0.134
105 | ATATATTA | 0.208
106 | GTGAACAC | 0.0268
107 | AGTGACCA | -0.195
108 | TCTTAGCA | -0.134
109 | AGTAAGTG | -0.0494
110 | ACACTGTG | -0.233
111 | AAAGGGGA | -0.128
112 | TCCGAACA | 0.239
113 | ACACGCAC | -0.168
114 | CGCGCGAC | -0.00587
115 | CAGAAGGG | -0.202
116 | ACGCCACG | -0.0375
117 | ATCCGCCC | 0.218
118 | GACACACA | -0.0713
119 | CCGCCAGA | 0.266
120 | CAGCAGCC | -0.193
121 | ACGGTCAC | 0.0418
122 | AACACCTA | 0.211
123 | CACGCAAC | -0.0613
124 | CCCATGCC | 0.0152
125 | GCTACCCC | 0.0894

Row | Sequence | PBM E-score
126 | CGTACCAC | -0.0428
127 | CCGTGAGG | 0.142
128 | CGATACTC | 0.218
129 | CCCAGGCA | -0.24
130 | AACGGCCG | 0.264
131 | AACCTCTC | -0.196
132 | AGACGTAC | -0.201
133 | TGTTAGAA | -0.13
134 | ACACCTAT | -0.00164
135 | GGCTGGGA | -0.162
136 | GTATAAAA | 0.21
137 | CATCCCGA | 0.1
138 | GCCTCTCA | -0.162
139 | GGTTTCAC | 0.0622
140 | GTAACTTA | -0.0488
141 | TCGTTAGA | -0.147
142 | ACAACATG | -0.227
143 | ATGCGGAG | 0.184
144 | AGTTCTAT | -0.0685
145 | ACGAGTGA | -0.179
146 | CTGTTGGC | -0.127
147 | CATGCCAG | -0.216
148 | GAAGGTGC | -0.0533
149 | GTTCTCTA | -0.1
150 | CGCTTAGA | -0.0677

Row | Sequence | PBM E-score
151 | GATATCTA | -0.155
152 | CATCGCCA | 0.0921
153 | AAACCCTT | 0.0483
154 | AACTGGCC | -0.143
155 | CCAAGATA | 0.0335
156 | AGCGTTAT | -0.0568
157 | ACGATGTC | -0.172
158 | ACATTTAG | -0.0615
159 | TCGATCGA | -0.148
160 | GCTCGCGA | 0.033
161 | GATAGGTA | -0.0734
162 | AATCCTGG | -0.109
163 | CGCCGTGC | 0.244
164 | CCCACGAA | -0.265
165 | CTTAGGAC | -0.206
166 | AGTGTTTG | -0.255
167 | TACTAGCA | -0.277
168 | TCCAGTAA | -0.256
169 | CGGCTGAC | -0.00958
170 | CTTCTCGC | -0.0222
171 | AGCTACAC | -0.174
172 | AGCGAACG | 0.0119
173 | CGGAGCCG | 0.0804
174 | CGGTTGCA | 0.0584
175 | ACGAATCG | 0.0406

Row | Sequence | PBM E-score
176 | GATACAGA | -0.0464
177 | ATCATGAG | -0.0314
178 | GATACCTA | -0.145
179 | ATTTCGCC | 0.12
180 | CGTTTCTA | -0.0418
181 | GCTTCTCC | -0.0574
182 | TTCGCCAA | -0.127
183 | CTGGTACC | 0.159
184 | ATGCGGAC | 0.245
185 | CGTCAATA | 0.113
186 | ACAGTGAC | -0.117
187 | CATCGGCG | 0.268
188 | AGACTCGA | -0.192
189 | ATTTGGCG | -0.108
190 | GGTACCAC | 0.157
191 | ATAGTACC | 0.359
192 | GCATAAGA | -0.00893
193 | CTCGGCTA | -0.056
194 | CTCTGGAC | -0.058
195 | AATACCAC | -0.0051
196 | ATTGCCAG | -0.202
197 | AGCACTGC | -0.218
198 | AAGTCAGC | -0.101
199 | AATTTCGG | 0.14
200 | ACTGTCCT | -0.215

Row | Sequence | PBM E-score
201 | AAATTTTG | -0.0242
202 | CTAATCCA | -0.106
203 | GAACTATC | 0.0192
204 | CAGAACCG | 0.0722
205 | TAGCCCAA | -0.142
206 | GTGCACAC | -0.233
207 | CAACAAAC | 0.0347
208 | ACACTCTG | -0.123
209 | ATAGCGCG | 0.0127
210 | ACTCTGCG | -0.139
211 | CCGCCACC | 0.28
212 | AGTTTTAA | 0.159
213 | AGGCTACG | -0.137
214 | GCGCGAAA | 0.0664
215 | ACCGAACG | 0.308
216 | CCTAAACG | 0.0805
217 | GCTCCCTA | -0.317
218 | GCTCGGAA | -0.0356
219 | GTAAAAAC | 0.0659
